According to the supplement of paper PMC4166925:
± gives the standard deviation of the averaged measurements. Whole data set: some 33,000 sequences, median “E-score (dimensionless, -0.5 to 0.5)” near -0.049, cut for the highest 2% near 0.37. This is one part of the list.

The sequences below were run on T1, PmTbr T-box DNA-binding domain (GST fusion) (assay: PBM E-score of 8-mer (E-score (dimensionless, -0.5 to 0.5)); Tbr is Tbrain of the sea star Patiria miniata (Pm) or the sea urchin Strongylocentrotus purpuratus (Sp); higher = stronger binding preference; most listed sequences are background and not binding sites). Conditions: the construct has about 5 more residues each side.
T1 sequence: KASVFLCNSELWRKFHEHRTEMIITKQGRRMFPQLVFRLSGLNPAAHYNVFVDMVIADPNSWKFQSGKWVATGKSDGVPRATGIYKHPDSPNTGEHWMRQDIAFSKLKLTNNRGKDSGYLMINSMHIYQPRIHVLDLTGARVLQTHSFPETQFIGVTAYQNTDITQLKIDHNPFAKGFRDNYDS
Procedure, shortened: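 Each ungapped 8-mer received an enrichment E-score from the Universal PBM Analysis Suite, averaged over duplicate arrays. The proteins were Tbr T-box DNA-binding domains, covering the whole T-box plus about five flanking residues, fused to GST and expressed in BL21 E. coli at 20 °C before glutathione affinity purification. Universal Agilent oligonucleotide arrays were made double-stranded by primer extension and incubated with 200 nM protein in PBS (pH 7.5). The arrays were then scanned and quantified, and every 8-mer was scored from probe intensities.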

Sequence	PBM E-score of 8-mer
ACTATTAC	-0.12 ± 0.025
TATAACCA	-0.109 ± 0.057
CTAAAGTC	-0.0791 ± 0.19
ACGGCCGG	-0.0494 ± 0.051
TAAGCGAA	-0.0711 ± 0.04
AATCTTGC	-0.0897 ± 0.1
ACATTTGA	0.038 ± 0.044
GTCAGCAA	0.0448 ± 0.033
ACCATCGA	-0.0672 ± 0.057
AGCCATTA	-0.18 ± 0.022
ACACGTTC	0.337 ± 0.013
TGACATCA	0.0708 ± 0.043
AAGAAACC	-0.194 ± 0.046
TAATTAGA	-0.233 ± 0.033
AATGCCGG	-0.122 ± 0.0097
TAACCGTA	-0.131 ± 0.015
GGACCCAA	-0.121 ± 0.032
GCTATTCA	0.0196 ± 0.074
ATCCAGGG	0.00813 ± 0.051
AGTCCGGG	-0.145 ± 0.1
CGTCGCCA	0.105 ± 0.018
CTGCCTAC	-0.225 ± 0.061

Sequence	PBM E-score of 8-mer
GCCAGCTA	-0.0583 ± 0.0056
CGGGTGAA	-0.316 ± 0.026
GGCCGGAC	-0.0922 ± 0.022
CCCGCGCG	0.0753 ± 0.0015
GAGAGAAA	0.0585 ± 0.061
GACTTTGC	-0.0821 ± 0.035
AGTATCTC	-0.13 ± 0.03
AAAACATA	-0.126 ± 0.014
GACGGATC	-0.191 ± 0.13
AATACGTG	0.0957 ± 0.056
ATTGATTG	-0.0938 ± 0.051
ATAAATTG	-0.147 ± 0.003
GCTTTAAC	-0.1 ± 0.071
CTAGGATA	0.0212 ± 0.018
ACGCTATG	-0.00382 ± 0.031
CCATTCCC	-0.18 ± 0.029
CGTGAACG	0.274 ± 0.059
CGTTCACC	-0.0379 ± 0.073
AAAACGTA	-0.115 ± 0.041
AATAACCT	-0.239 ± 0.034
AGGCATAC	-0.124 ± 0.018
ACATTCAA	-0.0911 ± 0.079

Sequence	PBM E-score of 8-mer
GAGTGTCC	-0.0246 ± 0.07
AGCTTACC	-0.294 ± 0.025
CCATCATA	-0.232 ± 0.0034
GAGGTGAC	0.4496 ± 0.0027
CGGAATGC	-0.173 ± 0.018
ACGTCACG	0.144 ± 0.03
AATGGCCC	-0.26 ± 0.073
AAAGCAGT	-0.144 ± 0.042
GAGACAAC	-0.0112 ± 0.012
CTTATCTC	0.0586 ± 0.016
AACGAGGG	-0.2731 ± 0.0027
CAGACCTG	-0.0919 ± 0.036
ACTCAGAA	0.0631 ± 0.058
AGGTTAAT	-0.147 ± 0.032
CCGGGACA	-0.241 ± 0.093
GCTGTACC	-0.115 ± 0.016
AAGGTGCG	0.45 ± 0.014
AGGATTAG	-0.247 ± 0.0091
CGCACGCC	0.194 ± 0.07
ACTCTCTG	-0.0739 ± 0.034
ATTTGTTC	-0.033 ± 0.05
GGTCGTAA	-0.104 ± 0.072

Sequence	PBM E-score of 8-mer
AACTCTTA	-0.37 ± 0.015
GGCCCGAC	-0.0864 ± 0.0056
GACATCGA	-0.0159 ± 0.0023
CGCACCGC	0.222 ± 0.063
ATCGAGGA	-0.338 ± 0.046
ATGTATTA	0.00739 ± 0.068
TACTCGCA	0.13 ± 0.0099
AAGCTACC	-0.144 ± 0.013
ACACTCAA	0.234 ± 0.017
GTTACGGA	-0.14526 ± 0.00014
ACCTGCCC	0.126 ± 0.013
AATGCCAA	0.114 ± 0.0042
AACGGTCC	-0.0739 ± 0.0076
AAACAAGC	-0.0443 ± 0.068
GCTATACC	-0.0444 ± 0.016
AGCACCTG	0.415 ± 0.0079
CGCTCACC	0.0475 ± 0.083
ATCAGCAA	-0.157 ± 0.077
AAAGACCC	-0.289 ± 0.021
ATGCTTGA	-0.0981 ± 0.12
ATGCGCGA	0.286 ± 0.011
TCGATCCA	-0.0612 ± 0.023

Sequence	PBM E-score of 8-mer
ACTGGAGA	-0.158 ± 0.018
ATCACAAG	0.278 ± 0.003
AGAGGACT	-0.267 ± 0.051
AGGTTTAC	-0.0264 ± 0.055
CACGACAA	0.123 ± 0.016
CTCCCCTC	-0.123 ± 0.017
AAGTACAA	-0.1659 ± 0.00023
ATCCGATA	-0.265 ± 0.011
GGGTATCA	-0.0465 ± 0.028
CTCTTTTC	-0.112 ± 0.059
CTGAGAAA	0.00608 ± 0.019
CTCCCGGA	-0.16 ± 0.076
AAGATGCG	0.044 ± 0.053
GACGTGTA	0.149 ± 0.019
AACACGAA	0.0255 ± 0.012
GAAGGCTA	-0.188 ± 0.0033
CTATGAAC	0.0868 ± 0.031
AACACCAC	0.3719 ± 0.0024
GCTGAAAA	0.00941 ± 0.013
CGGATCCA	-0.0512 ± 0.084
AGTAGTCA	-0.0777 ± 0.054
